Measured values from the supplement of paper PMC7826260.
The list shows a part of the results. Cleavage of a single-stranded DNA pool by Rep nickase domains was read by sequencing (3 µM enzyme, 1 h, 37 °C); shown is the middle of each 90-letter strand. The score is log2 (uncut reads / reads without enzyme); uncut sequences lie near 0, cut ones below; no hit call is given. Because reads are shares of a total, they shift together; uncut strands gain when others are lost, and binding without cutting may add a little.

What was measured:
Assay in all cases: uncleaved DNA left, log2 of reads against the no-enzyme library (log2 ratio); higher = less cleavage (more negative = more Rep cleavage of the k-mer); sequences stand for … in CTCGTCCG…ACCGGAGA
[1] = test system: T1, Rep nickase domain of Muscovy duck circovirus
T1 sequence (residues 1-111, tag not shown): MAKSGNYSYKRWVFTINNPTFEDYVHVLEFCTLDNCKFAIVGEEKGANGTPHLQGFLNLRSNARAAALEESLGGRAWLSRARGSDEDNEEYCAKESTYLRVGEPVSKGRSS
Method: (§1)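 A pool of 90-nt single-stranded DNAs with seven random bases just before the constant AC of the nick site (name = the seven bases) was cut by 3 µM recombinant His6-SUMO-tagged Rep nickase domain (300 nM DNA, 50 mM HEPES pH 8.0, 50 mM NaCl, 1 mM MnCl2, 1 h, 37 °C, three replicates). Uncut DNA was amplified and sequenced.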

[2] = test system: T2, Rep nickase domain of banana bunchy top virus
T2 sequence (residues 1-94, tag not shown): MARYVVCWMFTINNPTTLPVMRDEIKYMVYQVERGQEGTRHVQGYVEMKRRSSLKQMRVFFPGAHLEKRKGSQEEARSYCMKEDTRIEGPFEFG
Method: as §1

[3] = test system: T3, Rep nickase domain of cabbage leaf curl virus
T3 sequence (residues 1-116, tag not shown): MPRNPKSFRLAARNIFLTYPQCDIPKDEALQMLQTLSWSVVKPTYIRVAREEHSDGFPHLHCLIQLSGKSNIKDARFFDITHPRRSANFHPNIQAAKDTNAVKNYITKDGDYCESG
Method: as §1

[4] = test system: T4, Rep nickase domain of chickpea chlorotic dwarf virus
T4 sequence (residues 1-124, tag not shown): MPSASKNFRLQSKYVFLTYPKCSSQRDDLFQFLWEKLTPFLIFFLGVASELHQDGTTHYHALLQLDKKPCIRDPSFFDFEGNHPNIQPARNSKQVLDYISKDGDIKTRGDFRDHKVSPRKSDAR
Method: as §1

[5] = test system: T5, Rep nickase domain of faba bean necrotic yellows virus
T5 sequence (residues 1-98, tag not shown): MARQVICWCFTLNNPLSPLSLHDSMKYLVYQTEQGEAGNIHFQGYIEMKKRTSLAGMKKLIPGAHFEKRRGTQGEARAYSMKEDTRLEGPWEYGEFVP
Method: as §1

[6] = test system: T6, Rep nickase domain of maize striate mosaic virus
T6 sequence (residues 1-117, tag not shown): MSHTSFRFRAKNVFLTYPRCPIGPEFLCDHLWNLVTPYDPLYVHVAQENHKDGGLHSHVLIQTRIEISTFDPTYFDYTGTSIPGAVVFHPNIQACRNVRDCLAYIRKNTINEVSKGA
Method: as §1

[7] = test system: T7, Rep nickase domain of porcine circovirus 2
T7 sequence (residues 2-116, tag not shown): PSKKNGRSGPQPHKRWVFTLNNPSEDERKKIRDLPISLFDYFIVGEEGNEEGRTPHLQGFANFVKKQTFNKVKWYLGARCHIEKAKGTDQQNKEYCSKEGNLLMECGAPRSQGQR
Method: as §1

[8] = test system: T8, Rep nickase domain of tomato golden mosaic virus
T8 sequence (residues 1-124, tag not shown): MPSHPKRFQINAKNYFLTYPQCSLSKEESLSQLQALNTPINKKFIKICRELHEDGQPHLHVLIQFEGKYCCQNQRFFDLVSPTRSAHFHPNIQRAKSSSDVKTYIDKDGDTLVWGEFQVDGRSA
Method: as §1

[9] = test system: T9, Rep nickase domain of tomato yellow leaf curl virus
T9 sequence (residues 1-136, tag not shown): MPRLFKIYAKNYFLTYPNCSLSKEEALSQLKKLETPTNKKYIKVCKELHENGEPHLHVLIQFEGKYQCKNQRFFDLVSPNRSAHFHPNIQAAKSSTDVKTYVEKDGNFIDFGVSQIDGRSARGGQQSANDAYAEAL
Method: as §1

[10] = test system: T10, Rep nickase domain of wheat dwarf virus
T10 sequence (residues 1-137, tag not shown): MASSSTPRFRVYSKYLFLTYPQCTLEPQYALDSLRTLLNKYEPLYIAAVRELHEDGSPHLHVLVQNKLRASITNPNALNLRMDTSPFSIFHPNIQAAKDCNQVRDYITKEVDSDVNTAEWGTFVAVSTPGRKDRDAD
Method: as §1

| Sequence | uncleaved DNA left (log2) [1] | uncleaved DNA left (log2) [2] | uncleaved DNA left (log2) [3] | uncleaved DNA left (log2) [4] | uncleaved DNA left (log2) [5] | uncleaved DNA left (log2) [6] | uncleaved DNA left (log2) [7] | uncleaved DNA left (log2) [8] | uncleaved DNA left (log2) [9] | uncleaved DNA left (log2) [10] |
| --- | --- | --- | --- | --- | --- | --- | --- | --- | --- | --- |
| TGTCAGG | -0.0545 | -0.0246 | 0.385 | 1.22 | 0.016 | 1.45 | 0.101 | 0.145 | -0.0931 | 0.0727 |
| ATGACAA | -0.0845 | 0.0265 | 0.166 | 0.618 | 0.0333 | 0.298 | 0.0347 | -0.1 | 0.00173 | 0.108 |
| CACTGTA | -0.0392 | -0.257 | 0.0674 | -0.391 | 0.0198 | 0.395 | -2.83 | 0.177 | 0.21 | 0.0834 |
| CGGAAAT | -0.0155 | 0.0831 | 0.622 | 1.51 | -0.0398 | 1.71 | 0.135 | -0.011 | 0.151 | 0.0865 |
| AGCGAAC | -0.167 | -0.0531 | -0.104 | 0.398 | -0.0147 | 0.97 | -0.0342 | -0.0468 | -0.0691 | -0.0159 |
| GACAGGA | 0.154 | 0.152 | 0.36 | 0.695 | 0.00521 | 0.526 | 0.193 | 0.12 | 0.199 | 0.174 |
| CCCCCTG | -0.0931 | -0.000193 | -0.276 | -0.433 | -0.173 | -0.347 | -0.208 | -0.107 | -0.158 | -0.0231 |
| TCGTTGT | -0.212 | -0.256 | -0.25 | -0.67 | -0.189 | -0.953 | -2.46 | -0.134 | -0.0766 | -0.196 |
| GCCATAT | -0.0385 | 0.0711 | 0.238 | 0.247 | -0.0827 | -0.147 | 0.0061 | -0.0693 | 0.0215 | -0.0016 |
| GAGATAT | 0.127 | 0.148 | 0.857 | 2.03 | 0.121 | 2.22 | -0.856 | 0.143 | 0.1 | 0.221 |
| AAGAGGG | 0.0747 | 0.0898 | -0.14 | -0.13 | 0.00909 | -0.591 | 0.257 | 0.133 | -0.00987 | 0.0774 |
| GCGTATT | -2.2 | -2.02 | -0.562 | -1.37 | -2.33 | 0.298 | -2.57 | -0.185 | 0.238 | -0.674 |
| CTTTCCT | -0.92 | -0.146 | -0.23 | -2.26 | -0.0317 | -0.713 | -1.31 | -0.157 | -0.188 | -0.0892 |
| CCTAATA | -0.26 | -0.0928 | -0.367 | -1.54 | -0.162 | -0.981 | -0.266 | -0.121 | -0.0994 | -0.251 |
| CCGAAGC | -0.0856 | -0.246 | -0.164 | -0.565 | -0.203 | -0.912 | 0.0188 | -0.137 | -0.0286 | -0.191 |
| TCTGATG | -0.0502 | -0.021 | -0.238 | -0.147 | 0.0624 | -0.798 | 0.0903 | 0.0555 | 0.0709 | 0.0092 |
| GTATAGT | -1.11 | 0.0646 | 0.156 | 0.36 | 0.0533 | 1.39 | -0.921 | 0.0294 | 0.0677 | 0.0567 |
| GCCGTCG | -0.0107 | -0.0187 | -0.689 | -0.0132 | 0.0565 | -0.486 | 0.188 | -0.0677 | -0.129 | -0.134 |
| ATCCCCA | -0.217 | -0.182 | -0.0875 | -0.933 | -0.165 | -0.484 | -0.356 | -0.217 | -0.182 | -0.102 |
| GTTAGAC | 0.00345 | -0.00633 | 0.333 | 1.03 | 0.0207 | 1.64 | 0.0633 | 0.0594 | -0.0104 | 0.0131 |
| CTCCACA | -0.148 | 0.0756 | -0.128 | -1.51 | -0.0703 | -0.605 | -0.105 | -0.223 | -0.0951 | 0.149 |
| CCTGTGT | 0.0674 | -0.296 | -0.481 | -0.936 | -0.229 | -1.23 | -0.0658 | -0.146 | -0.221 | -0.287 |
| TCAACCG | -0.179 | 0.00852 | -0.859 | -1.32 | -0.00686 | -1.01 | -0.0461 | -0.0941 | -0.0786 | -0.0921 |
| TAGACAC | 0.0865 | 0.15 | 0.405 | 0.814 | 0.0555 | 0.859 | 0.0701 | -0.052 | 0.112 | 0.267 |
| TTCGGAC | -0.129 | -0.0287 | 0.244 | 1.14 | -0.0878 | 1.18 | 0.0397 | 0.0234 | -0.017 | -0.0172 |
| ATGTGCT | -0.579 | -0.0326 | -0.677 | -1.55 | -0.17 | -0.821 | -3.13 | -0.0613 | 0.00607 | -0.065 |
| CGGGCAT | 0.0176 | 0.036 | 0.854 | 1.99 | 0.000569 | 2.21 | 0.191 | -0.0741 | 0.0506 | 0.0326 |
| TACAACG | -0.0754 | -0.132 | -1.05 | -1.13 | -0.00912 | -1.42 | 0.0565 | -0.138 | -0.237 | -0.185 |
| TCAAATA | -0.00543 | -0.0396 | -0.146 | -1.57 | 0.1 | -0.509 | -0.0273 | 0.0469 | 0.0204 | -0.027 |
| GAAGGGC | 0.108 | 0.177 | 0.646 | 1.16 | 0.121 | 1.06 | 0.13 | 0.13 | 0.0768 | 0.0526 |
